# According to article PMC4336329 (PLoS ONE, 2015):
# In all, about 310,000 compounds went through this assay and about 14,000 (4.5%) showed an effect of 50% or more. Effects have a minus sign here. The list shows a part of the results.
# Target: human ether-à-go-go-related gene (hERG) potassium channel (human, UniProt Q12809)
# Assay: primary screen, population patch clamp on CHO cells stably expressing hERG
# 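Also: peak tail current of the secondary pulse compared with the same well before compound.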
# Chain of human ether-à-go-go-related gene (hERG) potassium channel (Q12809 whole entry, looked up): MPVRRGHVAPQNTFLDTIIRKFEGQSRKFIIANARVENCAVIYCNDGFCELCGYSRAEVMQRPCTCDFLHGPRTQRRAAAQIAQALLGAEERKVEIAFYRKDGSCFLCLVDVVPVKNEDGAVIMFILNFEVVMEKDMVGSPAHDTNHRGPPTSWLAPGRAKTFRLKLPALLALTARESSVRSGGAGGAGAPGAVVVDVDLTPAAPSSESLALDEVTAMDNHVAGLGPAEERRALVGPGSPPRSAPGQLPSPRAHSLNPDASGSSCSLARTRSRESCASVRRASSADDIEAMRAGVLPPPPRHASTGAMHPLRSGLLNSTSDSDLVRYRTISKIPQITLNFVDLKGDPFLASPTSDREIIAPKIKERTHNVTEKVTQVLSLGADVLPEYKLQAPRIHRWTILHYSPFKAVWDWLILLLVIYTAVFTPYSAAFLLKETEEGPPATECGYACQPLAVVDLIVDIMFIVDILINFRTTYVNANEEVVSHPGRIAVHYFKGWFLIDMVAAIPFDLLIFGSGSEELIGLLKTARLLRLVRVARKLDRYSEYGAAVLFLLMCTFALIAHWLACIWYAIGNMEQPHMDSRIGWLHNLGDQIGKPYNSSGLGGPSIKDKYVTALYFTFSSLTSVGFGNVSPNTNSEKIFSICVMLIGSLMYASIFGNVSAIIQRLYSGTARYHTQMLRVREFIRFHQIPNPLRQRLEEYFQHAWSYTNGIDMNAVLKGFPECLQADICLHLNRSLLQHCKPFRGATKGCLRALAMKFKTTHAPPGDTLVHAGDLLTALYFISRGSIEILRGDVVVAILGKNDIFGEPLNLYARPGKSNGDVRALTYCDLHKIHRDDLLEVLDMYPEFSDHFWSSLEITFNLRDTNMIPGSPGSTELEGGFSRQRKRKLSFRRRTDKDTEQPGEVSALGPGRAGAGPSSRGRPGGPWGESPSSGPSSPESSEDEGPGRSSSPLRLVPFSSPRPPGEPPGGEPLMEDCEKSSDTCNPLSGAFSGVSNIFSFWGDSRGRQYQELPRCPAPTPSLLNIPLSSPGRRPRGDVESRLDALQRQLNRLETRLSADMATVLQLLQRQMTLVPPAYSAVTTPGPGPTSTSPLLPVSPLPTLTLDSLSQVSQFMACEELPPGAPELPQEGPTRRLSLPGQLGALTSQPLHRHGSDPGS
row,Structure (SMILES),"hERG current change (%, negative = inhibition) at 10uM [%]"
1,Cc1cccc(NC(=O)Cn2nnc3sc4c(c3c2=O)CC(C)(C)OC4)c1,3.62
2,COC(=O)c1cc(NC(=O)c2ccco2)ccc1N1CCOCC1,5.55
3,CCn1nccc1C(=O)Nc1ccc(C)c(C)c1,8.67
4,COc1ccccc1NC(=O)CCC(=O)OCc1ccc(Cl)cc1,-0.804
5,O=C(CSC1=NS(=O)(=O)c2cc(F)ccc2N1)NCc1ccccc1,-1.82
6,CCN(CC)CCCn1c(=S)[nH]c2ccccc2c1=O,-25.7
7,CCN1C(=O)/C(=C2/C=CC=CN2C)OC1=S,-11.4
8,O=C1C[C@@H]2c3c(cccc3CN1Cc1ccc(F)cc1)C[C@@H](O)[C@H]2O,4.23
9,COCCN(C(=O)c1ccc(COc2ccccc2)o1)c1c(N)n(CC(C)C)c(=O)[nH]c1=O,-2.22
10,CCc1ccc(CNc2ccc3c(c2)ncn3CC)cc1,-19.7
11,Cc1ccc(NC(=O)/C=C/c2cccs2)c([N+](=O)[O-])c1,0.518
12,NS(=O)(=O)c1ccc(CCNC(=O)C(=O)NCC2OCCN2S(=O)(=O)c2cccs2)cc1 (centres unmarked),14.9
13,CCN(CC)S(=O)(=O)c1ccc(OC)c(NC(=O)c2cc(C)on2)c1,15.3
14,CCOc1ccc(NC(=O)c2cc3ccccc3cc2O)cc1,19.8
15,O=c1cc(N2CCc3ccccc3C2)[nH]c(=O)n1-c1ccc(Cl)cc1,3.07
16,Cc1cc(OCC(=O)Nc2ccc(CN3CCOCC3)cc2)ccc1Cl,-51.8
17,NC(=S)Nc1cccc2cnccc12,1.4
18,COc1ccc(CCNC(=O)COC(=O)c2cccs2)cc1OC,11.8
19,Cc1ccn2c(Nc3ccccc3C)c(-c3ccccn3)nc2c1,-9.6
20,COc1ccc(NC(=O)COC(=O)CNS(=O)(=O)/C=C/c2ccccc2)cc1OC,9.14
21,Cc1c(Cl)cccc1S(=O)(=O)N1CCC(C(=O)NNC(=O)C2CC2)CC1,1.6
22,COc1ccc(N2CC(NC(=O)NCCC(C)C)CC2=O)cc1 (centres unmarked),-19.2
23,COc1ccc(Cl)cc1NC(=S)NCCN1CCOCC1,-1.72
24,CCn1c(=O)c2sccc2n(CC(=O)NC2CCCCC2)c1=O,0.443
25,CCOCCCNC(=S)N1CCC(C(=O)c2ccc(C)cc2)CC1,-8.15
26,CSc1ccc(-c2nc(CN(C)C3CCOC3)c(C)o2)cc1 (centres unmarked),-31.4
